According to US20240376128A1, “N-CYCLOPROPYLPYRIDO [4, 3-D] PYRIMIDIN-4-AMINE DERIVATIVES AND USES THEREOF” (Jacobio Pharmaceuticals Co., Ltd., priority 2021, published 2024):

Tests used:
[1] = molecular target: T1, K-Ras G12V (Homo sapiens, UniProt P01116, G12V); assay: SOS1 catalyzed nucleotide exchange assay (GDP form K-Ras), TR-FRET; settings: read-out: Biochemical assays, IC50, K-Ras G12V GDP
Protocol: (§1) The parameters were F486: Excitation 340 nm, Emission 486 nm, Lag time 100 pas, Integration time 200 pas; F515: Excitation 340 nm, Emission 515 nm, Lag time 100 pas, Integration time 200 pas. TR-FRET ratios for each individual wells were calculated by equation: TR-FRET ratio=(Signal F515/Signal F486)*10000.

[2] = tested on: K-Ras mutant and K-Ras WT cell lines indicated in Table 20; assay: 2D cell growth inhibition assay (CellTiter-Glo, 6 days); type: cell-based
Protocol: Each of cells in culture medium was plated in TC-treated 96-well plates at a density indicated in Table 20 and incubated in a cell incubator overnight.

[3] = molecular target: T1, K-Ras G12V; assay: GTP-K-Ras (GppNp-K-Ras) and cRAF interaction assay, HTRF; settings: read-out: Biochemical assays, IC50, K-Ras G12V GppNp
Source text: (§2) GppNp is an analog of GTP.

[4] = molecular target: K-Ras G12D (Homo sapiens, UniProt P01116, G12D); assay: as above; settings: read-out: Biochemical assays, IC50, K-Ras G12D GppNp
Source text: as §2

[5] = Mouse pharmacokinetic study; type: in vivo; settings: female, Balb/c mouse, prodrug dosed po, equal to 10 mg/kg of parent drug, analyte = dosed prodrug in plasma; for AUC(0-t): read-out: AUC0-8h, analyte: prodrug; for Cmax: read-out: Cmax, analyte: prodrug
Protocol: The purpose of this study was to evaluate the pharmacokinetic properties of compounds in Balb/c mouse (♀) following single dose administration. Six mice were needed for each compound and the six mice were divided into two groups (n=3/group), group A and group B. Mice in group A were treated with a single 3 mg/kg dose of compound (iv). Mice in group B were treated with a single 10 mg/kg dose of compound (po). For each mouse in group A, blood samples were collected at the time point of 0.083, 0.5, 1, 2, 4 and 8 h post-dose. For each mouse in group B, blood samples were collected at the time point of 0.5, 1, 2, 4, 6 and 8 h post-dose. Blood samples were placed on ice until centrifugation to obtain plasma samples. The plasma samples were stored at −80° C. until analysis. The concentration of compound in plasma samples was determined using a LC-MS/MS method.
For the prodrug, only the oral PK study was performed and the dosage was adjusted to be equal to 10 mg/kg of parent drug. The concentrations of both prodrug and parent drug in plasma were determined using a LC-MS/MS method.

[6] = tested on: SW620 cell line (K-Ras G12V); assay: Phospho-ERK1/2(THR202/TYR204) HTRF assay; type: cell-based; settings: Homo sapiens, SW-620; SW620 cells (K-Ras G12V), 2 hours incubation; read-out: p-ERK, IC50(nM) SW620
[7] = molecular target: K-Ras WT (Homo sapiens, UniProt P01116); assay: SOS1 catalyzed nucleotide exchange assay (GDP form K-Ras), TR-FRET; settings: read-out: Biochemical assays, IC50, K-Ras WT GDP
Protocol: as §1

[8] = tested on: AGS cell line (K-Ras G12D); assay: Phospho-ERK1/2(THR202/TYR204) HTRF assay; type: cell-based; settings: Homo sapiens; AGS cells (K-Ras G12D), 2 hours incubation; read-out: p-ERK, IC50(nM) AGS
[9] = 144 h, AGS (K-Ras G12D), absolute IC50, read-out: Cell Growth Inhibition, IC50, AGS
[10] = Homo sapiens, ASPC1, 144 h, AsPC-1 (K-Ras G12D), absolute IC50, read-out: Cell Growth Inhibition, IC50, AsPC-1
[11] = Homo sapiens, SW-620, 144 h, SW620 (K-Ras G12V), absolute IC50, read-out: Cell Growth Inhibition, IC50, SW620

| Structure (SMILES) | IC50 [1] | IC50 [2, 9] | IC50 [2, 10] | IC50 [2, 11] | IC50 [3] | IC50 [4] | AUC(0-t) [5] | Cmax [5] | IC50 [6] | IC50 [7] | IC50 [8] |
| --- | --- | --- | --- | --- | --- | --- | --- | --- | --- | --- | --- |
| C#Cc1c(F)ccc2cc(O)cc(-c3ncc4c(N(C)[C@@H]5C[C@H]5F)nc(OC[C@@]56CCCN5C[C@H](F)C6)nc4c3F)c12 [Compound 3B, 5-ethynyl-6-fluoro-4-(8-fluoro-4-(((1R,2R)-2-fluorocyclopropyl)(methyl)amino)-2-(((2R,7aS)-2-fluorotetrahydro-1H-pyrrolizin-7a(5H)-yl)methoxy)pyrido[4,3-d]pyrimidin-7-yl)naphthalen-2-ol 2,2,2-trifluoroacetic acid] | 0.0122 µM | 0.0878 µM | 1.29 µM | 0.12 µM | 0.77 µM | 0.206 µM | – | – | – | – | – |
| [2H]C([2H])([2H])N(c1nc(OC[C@@]23CCCN2C[C@H](F)C3)nc2c(F)c(-c3cc(OC(=O)NC)cc4ccc(F)c(C#C)c34)ncc12)C1CC1 [Compound 8, 4-(4-(cyclopropyl(methyl-d3)amino)-8-fluoro-2-(((2R,7aS)-2-fluorotetrahydro-1H-pyrrolizin-7a(5H)-yl)methoxy)pyrido[4,3-d]pyrimidin-7-yl)-5-ethynyl-6-fluoronaphthalen-2-yl methylcarbamate] | – | – | – | – | – | 0.801 µM | 18300 ng·h/mL | 4960 ng/mL | – | – | – |
| C#Cc1c(F)ccc2cc(O)cc(-c3ncc4c(NC5(C)CC5)nc(OC[C@@]56CCCN5C[C@H](F)C6)nc4c3F)c12 [Compound 10, 5-ethynyl-6-fluoro-4-(8-fluoro-2-(((2R,7aS)-2-fluorotetrahydro-1H-pyrrolizin-7a(5H)-yl)methoxy)-4-((1-methylcyclopropyl)amino)pyrido[4,3-d]pyrimidin-7-yl)naphthalen-2-ol] | – | – | – | 0.123 µM | – | 0.519 µM | – | – | 64.7 nM | 0.0292 µM | – |
| C#Cc1c(F)ccc2cc(O)cc(-c3ncc4c(N(C)C5CC5(F)F)nc(OC[C@@]56CCCN5C[C@H](F)C6)nc4c3F)c12 (stereo partly drawn) [Compound 11, 4-(4-((2,2-difluorocyclopropyl)(methyl)amino)-8-fluoro-2-(((2R,7aS)-2-fluorotetrahydro-1H-pyrrolizin-7a(5H)-yl)methoxy)pyrido[4,3-d]pyrimidin-7-yl)-5-ethynyl-6-fluoronaphthalen-2-ol 2,2,2-trifluoroacetic acid] | – | – | – | 0.0505 µM | – | 0.252 µM | – | – | 23 nM | 0.019 µM | – |
| C#Cc1c(F)ccc2cc(O)cc(-c3ncc4c(N(C)[C@H]5C[C@H]5F)nc(OC[C@@]56CCCN5C[C@H](F)C6)nc4c3F)c12 [Compound 12, 5-ethynyl-6-fluoro-4-(8-fluoro-4-(((1S,2R)-2-fluorocyclopropyl)(methyl)amino)-2-(((2R,7aS)-2-fluorotetrahydro-1H-pyrrolizin-7a(5H)-yl)methoxy)pyrido[4,3-d]pyrimidin-7-yl)naphthalen-2-ol 2,2,2-trifluoroacetic acid] | – | 0.406 µM | 2.93 µM | 0.144 µM | – | 0.46 µM | – | – | 64.4 nM | 0.0434 µM | – |
| C#Cc1c(F)ccc2cc(O)cc(-c3ncc4c(N(CC5CC5)C5CC5)nc(OC[C@@]56CCCN5C[C@H](F)C6)nc4c3F)c12 [Compound 14, 4-(4-(cyclopropyl(cyclopropylmethyl)amino)-8-fluoro-2-(((2R,7aS)-2-fluorotetrahydro-1H-pyrrolizin-7a(5H)-yl)methoxy)pyrido[4,3-d]pyrimidin-7-yl)-5-ethynyl-6-fluoronaphthalen-2-ol] | 0.00885 µM | – | – | 0.259 µM | > 1 µM | 0.607 µM | – | – | – | – | – |
| C#Cc1c(F)ccc2cc(O)cc(-c3ncc4c(N(CC(F)F)C5CC5)nc(OC[C@@]56CCCN5C[C@H](F)C6)nc4c3F)c12 [Compound 17, 4-(4-(cyclopropyl(2,2-difluoroethyl)amino)-8-fluoro-2-(((2R,7aS)-2-fluorotetrahydro-1H-pyrrolizin-7a(5H)-yl)methoxy)pyrido[4,3-d]pyrimidin-7-yl)-5-ethynyl-6-fluoronaphthalen-2-ol 2,2,2-trifluoroacetic acid] | – | 0.0942 µM | 0.555 µM | 0.11 µM | – | 0.574 µM | – | – | 54.8 nM | – | 182 nM |
| C#Cc1c(F)ccc2cc(OC(=O)NC)cc(-c3ncc4c(N(C)[C@H]5C[C@@H]5F)nc(OC[C@@]56CCCN5C[C@H](F)C6)nc4c3F)c12.O=C(O)C(F)(F)F [Compound 20, 5-ethynyl-6-fluoro-4-(8-fluoro-4-(((1S,2S)-2-fluorocyclopropyl)(methyl)amino)-2-(((2R,7aS)-2-fluorotetrahydro-1H-pyrrolizin-7a(5H)-yl)methoxy)pyrido[4,3-d]pyrimidin-7-yl)naphthalen-2-yl methylcarbamate 2,2,2-trifluoroacetic acid] | – | – | – | – | – | – | 11900 ng·h/mL | 3480 ng/mL | – | – | – |
| C#Cc1c(F)ccc2cc(O)cc(-c3ncc4c(NC5CC5C)nc(OC[C@@]56CCCN5C[C@H](F)C6)nc4c3F)c12 (stereo partly drawn) [Compound 22, 5-ethynyl-6-fluoro-4-(8-fluoro-2-(((2R,7aS)-2-fluorotetrahydro-1H-pyrrolizin-7a(5H)-yl)methoxy)-4-((2-methylcyclopropyl)amino)pyrido[4,3-d]pyrimidin-7-yl)naphthalen-2-ol] | – | – | – | 0.0416 µM | – | 0.73 µM | – | – | 28.6 nM | 0.00839 µM | – |
| C#Cc1c(F)ccc2cc(O)cc(-c3ncc4c(NC5(CF)CC5)nc(OC[C@@]56CCCN5C[C@H](F)C6)nc4c3F)c12 [Compound 25, 5-ethynyl-6-fluoro-4-(8-fluoro-4-((1-(fluoromethyl)cyclopropyl)amino)-2-(((2R,7aS)-2-fluorotetrahydro-1H-pyrrolizin-7a(5H)-yl)methoxy)pyrido[4,3-d]pyrimidin-7-yl)naphthalen-2-ol] | – | 0.243 µM | 2.18 µM | 0.0977 µM | – | 0.32 µM | – | – | 52.1 nM | – | 305 nM |
| C#Cc1c(F)ccc2cc(O)cc(-c3nc(Cl)c4c(N(C)C5CC5)nc(OC[C@@]56CCCN5C[C@H](F)C6)nc4c3F)c12 [Compound 33, 4-(5-chloro-4-(cyclopropyl(methyl)amino)-8-fluoro-2-(((2R,7aS)-2-fluorotetrahydro-1H-pyrrolizin-7a(5H)-yl)methoxy)pyridin [4,3-d]pyrimidin-7-yl)-5-ethynyl-6-fluoro-naphthalen-2-ol 2,2,2-trifluoroacetic acid] | – | 0.0979 µM | 0.703 µM | 0.071 µM | – | 0.657 µM | – | – | 8.39 nM | – | 38.6 nM |
| C#Cc1c(F)ccc2cc(O)cc(-c3ncc4c(NC5C6COCC65)nc(OC[C@@]56CCCN5C[C@H](F)C6)nc4c3F)c12 (stereo partly drawn) [Compound 53, 4-(4-((3-oxabicyclo[3.1.0]hexan-6-yl)amino)-8-fluoro-2-(((2R,7aS)-2-fluorotetrahydro-1H-pyrrolizin-7a(5H)-yl)methoxy)pyrido[4,3-d]pyrimidin-7-yl)-5-ethynyl-6-fluoronaphthalen-2-ol] | – | – | – | 0.0372 µM | – | – | – | – | 165 nM | – | – |
| C#Cc1c(F)ccc2cc(O)cc(-c3ncc4c(NC5C6CCCCC65)nc(OC[C@@]56CCCN5C[C@H](F)C6)nc4c3F)c12 (stereo partly drawn) [Compound 55, 4-(4-(bicyclo[4.1.0]heptan-7-ylamino)-8-fluoro-2-(((2R,7aS)-2-fluorotetrahydro-1H-pyrrolizin-7a(5H)-yl)methoxy)pyrido[4,3-d]pyrimidin-7-yl)-5-ethynyl-6-fluoronaphthalen-2-ol] | – | – | – | – | – | 1.53 µM | – | – | – | 0.0294 µM | – |
| C#Cc1c(F)ccc2cc(O)cc(-c3ncc4c(NC5(COC)CC5)nc(OC[C@@]56CCCN5C[C@H](F)C6)nc4c3F)c12 [Compound 58, 5-ethynyl-6-fluoro-4-(8-fluoro-2-(((2R,7aS)-2-fluorotetrahydro-1H-pyrrolizin-7a(5H)-yl)methoxy)-4-((1-(methoxymethyl)cyclopropyl)amino)pyrido[4,3-d]pyrimidin-7-yl)naphthalen-2-ol] | – | – | – | 0.158 µM | – | > 1 µM | – | – | 65.3 nM | – | – |

Read-outs that look alike come from different tables or passages of the source.
